Data taken from publication PMC5481654, “Identification of the anti-mycobacterial functional properties of piperidinol derivatives” (British journal of pharmacology, 2017).
In brackets after ≈: the same amount, converted by molar mass.

Tests used:
[1] = system: M. smegmatis; assay: REMA checkerboard assay with isoniazid; assay type: cell-based; conditions: for interaction with isoniazid: checkerboard; for ΣFIC (fractional inhibitory index): combination with isoniazid, ≤0.5 synergy, ≥4 antagonism
[2] = system: P. putida; assay: MIC by REMA; assay type: cell-based, Pseudomonas putida; conditions: at concentrations as high as 250 μg·mL^−1
[3] = system: M. smegmatis; assay: Time kill studies; assay type: cell-based; conditions: 2× MBC
[4] = system: M. smegmatis; assay: Determination of the MBC; assay type: cell-based; conditions: for MBC: Mycolicibacterium smegmatis, M. smegmatis, lowest concentration with no CFUs; for bactericidal activity: actively growing M. smegmatis
[5] = system: M. smegmatis; assay: MIC by resazurin reduction microplate assay (REMA); assay type: cell-based, M. smegmatis MC^2155; conditions: Mycolicibacterium smegmatis, M. smegmatis, Table 1, mean ± SEM, n = 5; read-out: MIC
[6] = system: E. coli; assay: MIC by REMA; assay type: cell-based, Escherichia coli; conditions: at concentrations as high as 250 μg·mL^−1
[7] = system: ovine red blood cells; assay: Agglutination assay; assay type: cell-based; conditions: any concentration tested up to 250 μg·mL^−1
[8] = system: human cell line U937; conditions: cited from earlier work
[9] = system: mouse macrophage cell line RAW 264.7; conditions: cited from earlier work
[10] = assay type: in vitro ADME; conditions: CD-1, mouse, microsomes, 1 μg·mL, pH 7.4
[11] = system: M. tuberculosis; set-up: method as in Jeney and Zsolnai, 1956; Abuhammad et al., 2012; conditions: ref Jeney and Zsolnai, 1956, Abuhammad et al., 2012, listed as compound 1; cited from earlier work

Compound	interaction with isoniazid [1]	ΣFIC (fractional inhibitory index) [1]	effect on the growth of P. putida [2]	time to apparently complete eradication of viable M. smegmatis [3]	time to two-log reduction in CFUs ([3]; M. smegmatis)	MBC [4]	bactericidal activity [4]	MIC [5]	effect on the growth of E. coli [6]	agglutination of ovine red blood cells [7]	toxicity [8]	toxicity [9]	CLint [10]	MIC [11]	reduction in CFUs ([3]; M. smegmatis, during the time kill period)
CN(CCC(=O)c1ccccc1)CCC(=O)c1ccccc1 [Compound 2, 3,3′-(methylazanediyl)bis(1-phenylpropan-1-one)]	no antagonistic interaction	3	do not have any effect	≤ 5 h	3 h	78 to 156 µg/mL (≈ 264 to 528 µM)	bactericidal	125 µg/mL (≈ 423 µM)	do not have any effect						
CN1CCC(O)(c2ccccc2)C(C(=O)c2ccccc2)C1 (stereo not drawn) [Compound 1]	no antagonistic interaction	1.5	do not have any effect	≤ 3 h	90 min	312 µg/mL (≈ 1060 µM)	bactericidal	62.5 µg/mL (≈ 212 µM)	do not have any effect	No lysis or agglutination	low toxicity	low toxicity	> 48 μL·min^−1·mg^−1 protein	< 5 µg/mL	
CO[C@H]1/C=C/O[C@@]2(C)Oc3c(C)c(O)c4c(O)c(c(/C=N/N5CCN(C)CC5)c(O)c4c3C2=O)NC(=O)/C(C)=C\C=C\[C@H](C)[C@H](O)[C@@H](C)[C@@H](O)[C@@H](C)[C@H](OC(C)=O)[C@@H]1C [Rifampicin, reference compound]															no reduction in CFUs
